# In patent US20220403048A1, “BINDING MOLECULES TO ARGINASE II [ARG2]” (Cancer Research Technology Limited, priority 2019, published 2022):
# T1: recombinant human trimeric ARG2 enzyme (Homo sapiens, UniProt P78540, E275H/R327K)
# T1 construct: His10 (after a GGG linker) (C); made in house; host or cells: E. coli BL21 (DE3)
# T1 sequence (P78540 with tags, fused parts or gaps E275H/R327K): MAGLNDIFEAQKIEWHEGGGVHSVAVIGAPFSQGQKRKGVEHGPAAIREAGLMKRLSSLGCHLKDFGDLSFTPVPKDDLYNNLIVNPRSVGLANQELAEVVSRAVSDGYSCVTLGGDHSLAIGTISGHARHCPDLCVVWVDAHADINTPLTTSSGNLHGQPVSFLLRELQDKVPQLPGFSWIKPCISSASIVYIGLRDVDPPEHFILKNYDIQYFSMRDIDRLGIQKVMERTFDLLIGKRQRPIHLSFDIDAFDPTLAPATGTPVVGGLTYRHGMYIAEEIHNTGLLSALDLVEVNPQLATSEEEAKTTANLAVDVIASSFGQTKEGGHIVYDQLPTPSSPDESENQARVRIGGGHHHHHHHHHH
# Target: T1, recombinant human trimeric ARG2 enzyme
# Experiment: Direct binding HTRF assay, human trimeric ARG2
# Conditions: purified scFv, FIG. 1A
# Experimental: Unpurified scFv from periplasmic preparations were screened in a homogeneous time-resolved fluorescence (HTRF™, CisBio Bioassays, France) binding assay using a Pherastar plate reader (BMG Labtech, Germany). In this assay, binding of unpurified scFv to recombinant human trimeric ARG2 enzyme was assessed by measuring the fluorescence resonance energy transfer (FRET) between the c-myc tagged scFv and the biotinylated enzyme using streptavidin cryptate and anti-c-myc-XL665 detection reagents (CisBio International, France; cat: 610SAKLB and 61 MYCXLB respectively). […] Assay plates were incubated overnight at 4° C. prior to reading time resolved fluorescence on a Pherastar plate reader ([…]) using an excitation wavelength of 320 nm and measuring the emission at 620 nm and 665 nm (100 flashes).
# Data were analysed by calculating % Delta F values for each sample. % Delta F was determined according to equation 1.
# The scFv with unique protein sequences were expressed in E. coli and purified by affinity chromatography (essentially as described (Bannister et al., 2006)). The ARG2 binding profile of each purified scFv was determined by testing a dilution series of the purified scFv in the HTRF™ assay described in section 1.4, substituting the unpurified scFv periplasmic preparation with the purified scFv. […] Data were analysed by calculating the % Delta F values as described in section 1.4. […]
molecule,measurement,value
"C0020187: anti-ARG2 antibody, parent lead isolation clone, VH SEQ ID NO: 12, VL SEQ ID NO: 17 (antibody, listed as Homo sapiens, V domains shown, C0020187) VH: [about 100 residues not given here]LRADLGLYMDLWGRGTLVTVSS VL: QSVLTQPPSVSAAPGQKVTISCSGSSSNIGNHYVSWYQQLPGTAPKLLIYDNSERPSGIPDRFSGSKSGTSATLGITGLQTGDEADYYCGTWDSSLSALVFGGGTKLTVL",binding to biotinylated recombinant human trimeric ARG2 enzyme,bound
